# Test results as given in PubChem BioAssay AID686970 (National Center for Advancing Translational Sciences (NCATS), 2013).
# “And” between values parts separate entries of the source, which are not always exact repeats. Identical values can stand only once. Among all 360,000 compounds or so, about 6,000 (1.7%) were called active. The shares of active, inactive and inconclusive entries below differ from those in the screen. Calls come from the whole dose curve; as a rule, active = well fitted cell-killing curve with a large enough effect; inconclusive = small, poorly fitted or top-dose-only effect, or effect the other way; inactive = flat fitted curve, though single readings scatter. No potency is given beside an inconclusive call; the fits are too rough.
# Experiment: qHTS for induction of synthetic lethality in tumor cells producing 2HG: qHTS for the HT-1080-NT fibrosarcoma cell line;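 note: NT is the 2HG producing partner of a matched IDH1 knockdown line; nearly all actives have a fitted effect of over 55% in size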;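 for activity, negative = less viability: 0% = DMSO-treated cells and -100% = media-only wells without cells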
# Conditions: HT-1080-NT fibrosarcoma viability, CellTiter-Glo ATP luminescence, 48 h; activity, negative = less viability: at 46.1 µM (top of the series) unless noted
# In short: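 HT-1080-NT; 750 cells/well; 5% FBS RPMI; 48 h compound, 37 degrees C; CellTiter-Glo luminescence; curve fitting and curve-class assignment.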
# Potency is the fitted concentration of half-maximal effect; tags give direction and shape of the fitted curve.
SMILES,Potency,"activity, negative = less viability"
CC1(C)CC(=O)C2=C(C1)N=C1c3ccccc3C(=O)C1C2c1ccc(Cl)cc1 (stereo not drawn),"inconclusive [cytotoxic, single point]",–
CC1CC(C)CN(CCCNC(=O)c2c(O)nc3ccccn3c2=O)C1 (stereo not drawn),inactive,–
O=C1OC(Nc2ccc3c(c2)OCO3)c2ccccc21 (stereo not drawn),"inconclusive [cytotoxic, partial curve]",–
Cc1ccc(N=Nc2ccc(O)c3ncccc23)cc1,"inconclusive [cytotoxic, full curve]",–
NC(=O)c1cn(-c2ccccc2)nc1-c1cc2ccccc2oc1=O,inactive,–
CSc1nc(-c2ccccc2)nn1C(=O)c1ccccc1,inactive,–
CCCCCn1c(=NC(=O)c2ccco2)c(C(=O)OCC)cc2c(=O)n3ccccc3nc21,inactive,–
CCN(CC)C(=O)C1CCCN(c2ccc([N+](=O)[O-])cc2[N+](=O)[O-])C1 (stereo not drawn),inactive,–
CCOCc1nnc(NS(C)(=O)=O)s1,–,inconclusive: 6.62%
Cc1ccc(-n2nnnc2Sc2ccc(S(=O)(=O)NCCN(C)C)cc2[N+](=O)[O-])cc1,"inconclusive [cytotoxic, single point]",–
COc1cc(CNC(=O)Nc2nc(C(N)Cc3ccc(Cl)cc3)cs2)cc(OC)c1OC (stereo not drawn),active: 6.51 µM,–
CCCN(C(=O)CCl)C1=CCCCC1,active: 10.3 µM,–
Cc1cc(C(=O)CSc2nc(N)cc(N)n2)c(C)n1CCc1ccc(F)cc1,"inconclusive [cytotoxic, partial curve]",–
CCN(CC)CCCC(C)n1c2nc(=O)[nH]c(=O)c-2nc2cc(Cl)ccc21 (stereo not drawn),"inconclusive [cytotoxic, single point]",–
O=C(NNC(=S)NC(=O)c1cn(-c2ccccc2)nc1-c1ccccc1)c1ccncc1,"inconclusive [cytotoxic, single point]",–
COc1ccc(CCn2c(C)cc(C(=O)CN3C(=O)C(=O)N(Cc4ccco4)C3=O)c2C)cc1,"inconclusive [cytotoxic, partial curve]",–
Cc1ccc(C)c(NC(=O)NC2CCCCCCC2)c1,inactive,–
COc1cc(C(=O)N(CCc2ccccc2)C2=CC3CCC(C2)N3C)cc(OC)c1OC (stereo not drawn),"inconclusive [rising, partial curve]",–
CNc1nc(N)c(C(=O)Nc2cc(C)on2)s1,"inconclusive [rising, single point]",–
Cc1c(CCO)c(=O)[nH]n1C(=O)c1c(F)cccc1F,"inconclusive [cytotoxic, partial curve]",–
OC(CNCCc1ccc(C(F)(F)F)cc1)COC(c1ccccc1)c1ccccc1 (stereo not drawn),"inconclusive [cytotoxic, partial curve]",–
COc1ccc(C(O)(CCC(C)C)C(CN2CCOCC2)c2ccc(Cl)cc2)cc1 (stereo not drawn),"inconclusive [cytotoxic, single point]",–
CCOC(=O)c1c(C)[nH]c(N=Nc2ccccc2)c1C,"inconclusive [cytotoxic, single point]",–

SMILES,Potency,"activity, negative = less viability"
Cc1ccc(NC(=O)c2ccc(Cl)c(NC(=O)c3cccs3)c2)cc1,"inconclusive [cytotoxic, single point]",–
COc1ccccc1C1c2ccc3ccccc3c2Oc2ncn(CCN(C)C)c(=N)c21 (stereo not drawn),active: 10.3 µM,–
Cc1sc2nc(CN(CCc3ccccc3)C(=O)c3ccco3)[nH]c(=O)c2c1C,inactive,–
COc1ccc(Nc2cc(=O)oc3ccccc23)cc1,active: 7.31 µM,–
Nn1c(Cc2cccc3ccccc23)nnc1SCc1c(Cl)cccc1Cl,"inconclusive [cytotoxic, single point]",–
Cc1cc(C(=O)N/N=C/c2cc(Br)ccc2OC(=O)c2ccccc2)n[nH]1,"inconclusive [cytotoxic, partial curve]",–
CCOc1ccc(OCCC(=O)N(CCOC)c2c(N)n(Cc3ccccc3)c(=O)[nH]c2=O)cc1,–,inactive: 4.04% [at 9.24 µM]
O=C(O)/C=C/S(=O)(=O)c1ccc2ccccc2c1,inactive,–
CCOc1ccc(-n2c(C)cc(C(=O)CCl)c2C)cc1,active: 7.31 µM,–
CCCCCCCCN1C(=O)[C@H](CC(=O)NCc2cccc3ccccc23)C[C@@]2(C(=O)OC)CCCCC=C12,"inconclusive [cytotoxic, single point]",–
CCOC(=O)N1CCN(c2ncnc3scc(-c4ccc(Cl)cc4)c23)CC1,"inconclusive [cytotoxic, single point]",–
CN1CC(c2ccccc2)C2(SC(=S)N(Cc3ccco3)C2=O)C12C(=O)Nc1ccccc12 (stereo not drawn),"inconclusive [cytotoxic, single point]",–
CC1Sc2ccc(S(=O)(=O)N3CCC(C(=O)NCc4ccc(Cl)cc4)CC3)cc2NC1=O (stereo not drawn),"inconclusive [cytotoxic, single point]",–
N#CC1=C(N)Oc2c(O)cc3ccccc3c2C1c1ccsc1 (stereo not drawn),active: 20.6 µM,–
CCn1c2ccccc2c2cc(C3C(C#N)=C(N)Oc4n[nH]c(COC)c43)ccc21 (stereo not drawn),active: 11.2 µM,–
N#Cc1cc(Oc2cccc3cccnc23)c(-n2nnc3ccccc32)cc1C#N,active: 5.62 µM,–
c1coc(CNc2nc(N3CCCCC3)nc3ccccc23)c1,"inconclusive [cytotoxic, single point]",–
CN(C)c1ccc(/C=C/c2ccc3c4ccccc4ccc3[n+]2-c2ccccc2)cc1,active: 11.2 µM and active: 11.6 µM,–
COCCN(C(=O)Cc1cccs1)C(C(=O)NCc1ccc(OC)cc1)c1ccccc1 (stereo not drawn),inactive,–
O=C(Cc1c(F)c(F)c(F)c(F)c1F)Nc1nc(-c2ccccc2)cs1,"inconclusive [cytotoxic, single point]",–
CCOCCCNC(=O)c1ccc2c(c1)N=C(CC)c1cc(Br)ccc1S2,"inconclusive [cytotoxic, full curve]",–
Cc1ccc2c(c1)[nH]c1c(N3CCN(Cc4ccccc4)CC3)ncnc12,"inconclusive [cytotoxic, single point]",–
Cc1ccccc1CSCCNC(=O)CN(c1ccc2c(c1)OCO2)S(C)(=O)=O,–,inconclusive: 4.34%

SMILES,Potency,"activity, negative = less viability"
COc1ccccc1/C=C/C(=O)NC(=S)N(C)C1CCCCC1,"inconclusive [cytotoxic, single point]",–
COc1cc(/C=N/NC(=O)c2ccc(O)cc2)ccc1Oc1ccc([N+](=O)[O-])cn1,"inconclusive [cytotoxic, partial curve]",–
COc1cc2c(cc1OC)CN(C1CCC(C)CC1)CC2 (stereo not drawn),–,inconclusive: 33.3%
COc1cc(C(=O)NNC(=S)NC(=O)c2ccccc2C)cc(OC)c1OC,inactive,–
COc1ccc(N=C2S/C(=C\c3ccc(OC(C)C(=O)O)c(OC)c3)C(=O)N2CCc2c[nH]c3ccccc23)cc1 (stereo not drawn),"inconclusive [cytotoxic, partial curve, poor fit]",–
COc1ccc(OC)c(/C=C/C(=O)OCC(=O)Nc2ccc3c(c2)OCCO3)c1,"inconclusive [cytotoxic, single point]",–
CN(c1cccc(NC(=O)CN(c2ccc(C34CC5CC(CC(C5)C3)C4)cc2)S(C)(=O)=O)c1)S(C)(=O)=O,"inconclusive [cytotoxic, single point]",–
CCc1nnc(NC(=O)C2CCN(c3ncnc4sc(C)c(C)c34)CC2)s1,inactive,–
CC1CCN(c2c(NCc3ccc(C(=O)N4CCc5ccccc54)cc3)c(=O)c2=O)CC1,active: 5.17 µM,–
COc1cccc(Cn2c3ccc(NC(=O)Cc4cc(OC)ccc4OC)cc3c(=O)n2C)c1,"inconclusive [cytotoxic, single point]",–
CCN(CC)C(=S)SSC(=S)N(CC)CC,"inconclusive [cytotoxic, full curve, poor fit]",–
CCOC(=O)C1=C(C)N(c2ccccc2)C(=O)C1,"inconclusive [cytotoxic, partial curve]",–
C/C(=N\NC(=S)Nc1c(C)cccc1C)c1ccc(OC(F)F)cc1,"inconclusive [cytotoxic, single point]",–
CCOC(=O)C1=CCN(S(=O)(=O)c2ccccc2C)C1c1ccc(Br)cc1 (stereo not drawn),"inconclusive [cytotoxic, partial curve]",–
Clc1ccc(COn2ccnc2)cc1Cl,–,inconclusive: 5.13%
CC1c2cc3c(cc2CCN1C(=O)c1cccc(Cl)c1)OCCCO3 (stereo not drawn),active: 20.6 µM,–
O=C(CCCN1C(=O)/C(=C/c2cccs2)SC1=S)Nc1cccc(O)c1,"inconclusive [cytotoxic, full curve]",–
N#Cc1cccc(NC(=O)N2CCC(c3nc4c(nnn4Cc4cccc(Cl)c4)c(=O)[nH]3)CC2)c1,"inconclusive [cytotoxic, single point]",–
CCOc1ccc(CCN2C(=O)C(=O)N([C@@H](CC(C)C)CN3CCC[C@H]3CN3C(=O)C(=O)NC[C@@H]3Cc3ccccc3)C[C@@H]2Cc2ccccc2)cc1,"inconclusive [cytotoxic, single point]",–
NC(=O)c1c(NC(=O)COC(=O)c2ccc(S(=O)(=O)Nc3ccccc3)cc2)sc2c1CCCC2,"inconclusive [cytotoxic, single point]",–
COc1ccc(-c2oc3c(c2C#CC2(O)CCCCC2)C(OC(C)=O)CCC3)cc1 (stereo not drawn),"inconclusive [cytotoxic, single point]",–
COc1cc(CNC2CCCC2)c(Br)cc1OC1CCCC1,"inconclusive [cytotoxic, partial curve]",–
